Results on six substances are retold here after PMC6579465.

Amino acid sequences for entries named in this document (tags omitted). A change or cut given only in a name is not applied to a line headed by its entry. Chains listed by the source or under a name are the forms on record and can include a tag or linker. Residues count along the entry.
UniProt Q9ERH3: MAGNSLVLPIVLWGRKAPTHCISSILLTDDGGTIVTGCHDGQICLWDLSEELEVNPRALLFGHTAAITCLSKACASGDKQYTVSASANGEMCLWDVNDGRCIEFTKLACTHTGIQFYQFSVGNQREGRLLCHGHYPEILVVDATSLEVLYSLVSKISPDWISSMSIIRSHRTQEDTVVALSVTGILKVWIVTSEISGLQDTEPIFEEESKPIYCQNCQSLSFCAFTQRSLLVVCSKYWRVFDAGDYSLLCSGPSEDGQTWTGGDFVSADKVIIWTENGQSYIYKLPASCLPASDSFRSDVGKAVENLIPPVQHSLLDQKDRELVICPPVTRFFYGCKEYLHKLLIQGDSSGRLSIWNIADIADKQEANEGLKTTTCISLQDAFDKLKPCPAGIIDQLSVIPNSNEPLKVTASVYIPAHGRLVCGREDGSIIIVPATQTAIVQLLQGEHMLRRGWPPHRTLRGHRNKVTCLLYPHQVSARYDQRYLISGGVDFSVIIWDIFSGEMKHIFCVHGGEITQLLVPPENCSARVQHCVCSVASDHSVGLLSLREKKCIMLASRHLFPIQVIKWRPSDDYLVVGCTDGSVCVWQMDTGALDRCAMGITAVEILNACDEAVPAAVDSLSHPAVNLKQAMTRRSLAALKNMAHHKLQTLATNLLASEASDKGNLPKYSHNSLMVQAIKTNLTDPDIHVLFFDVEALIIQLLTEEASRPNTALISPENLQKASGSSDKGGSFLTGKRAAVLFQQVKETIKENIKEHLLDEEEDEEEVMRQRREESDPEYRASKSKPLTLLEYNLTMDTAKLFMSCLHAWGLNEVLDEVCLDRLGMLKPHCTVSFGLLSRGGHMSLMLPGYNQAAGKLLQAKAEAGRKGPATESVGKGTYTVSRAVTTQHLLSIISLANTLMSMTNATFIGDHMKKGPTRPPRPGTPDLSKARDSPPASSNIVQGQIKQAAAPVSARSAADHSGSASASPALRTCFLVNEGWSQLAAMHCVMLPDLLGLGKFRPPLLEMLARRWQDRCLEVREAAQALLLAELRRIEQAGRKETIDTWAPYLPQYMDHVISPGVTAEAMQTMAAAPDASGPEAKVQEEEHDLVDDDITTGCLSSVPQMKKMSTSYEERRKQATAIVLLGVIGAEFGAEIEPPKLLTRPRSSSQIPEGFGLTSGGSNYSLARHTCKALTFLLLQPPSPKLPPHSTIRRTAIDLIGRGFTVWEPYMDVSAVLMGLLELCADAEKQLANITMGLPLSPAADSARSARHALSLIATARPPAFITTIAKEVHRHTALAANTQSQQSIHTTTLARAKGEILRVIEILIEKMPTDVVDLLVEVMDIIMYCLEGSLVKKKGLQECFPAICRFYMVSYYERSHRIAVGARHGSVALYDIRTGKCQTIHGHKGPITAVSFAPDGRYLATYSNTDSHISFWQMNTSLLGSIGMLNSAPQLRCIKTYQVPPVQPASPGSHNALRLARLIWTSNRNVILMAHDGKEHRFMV
UniProt Q9Y4E6: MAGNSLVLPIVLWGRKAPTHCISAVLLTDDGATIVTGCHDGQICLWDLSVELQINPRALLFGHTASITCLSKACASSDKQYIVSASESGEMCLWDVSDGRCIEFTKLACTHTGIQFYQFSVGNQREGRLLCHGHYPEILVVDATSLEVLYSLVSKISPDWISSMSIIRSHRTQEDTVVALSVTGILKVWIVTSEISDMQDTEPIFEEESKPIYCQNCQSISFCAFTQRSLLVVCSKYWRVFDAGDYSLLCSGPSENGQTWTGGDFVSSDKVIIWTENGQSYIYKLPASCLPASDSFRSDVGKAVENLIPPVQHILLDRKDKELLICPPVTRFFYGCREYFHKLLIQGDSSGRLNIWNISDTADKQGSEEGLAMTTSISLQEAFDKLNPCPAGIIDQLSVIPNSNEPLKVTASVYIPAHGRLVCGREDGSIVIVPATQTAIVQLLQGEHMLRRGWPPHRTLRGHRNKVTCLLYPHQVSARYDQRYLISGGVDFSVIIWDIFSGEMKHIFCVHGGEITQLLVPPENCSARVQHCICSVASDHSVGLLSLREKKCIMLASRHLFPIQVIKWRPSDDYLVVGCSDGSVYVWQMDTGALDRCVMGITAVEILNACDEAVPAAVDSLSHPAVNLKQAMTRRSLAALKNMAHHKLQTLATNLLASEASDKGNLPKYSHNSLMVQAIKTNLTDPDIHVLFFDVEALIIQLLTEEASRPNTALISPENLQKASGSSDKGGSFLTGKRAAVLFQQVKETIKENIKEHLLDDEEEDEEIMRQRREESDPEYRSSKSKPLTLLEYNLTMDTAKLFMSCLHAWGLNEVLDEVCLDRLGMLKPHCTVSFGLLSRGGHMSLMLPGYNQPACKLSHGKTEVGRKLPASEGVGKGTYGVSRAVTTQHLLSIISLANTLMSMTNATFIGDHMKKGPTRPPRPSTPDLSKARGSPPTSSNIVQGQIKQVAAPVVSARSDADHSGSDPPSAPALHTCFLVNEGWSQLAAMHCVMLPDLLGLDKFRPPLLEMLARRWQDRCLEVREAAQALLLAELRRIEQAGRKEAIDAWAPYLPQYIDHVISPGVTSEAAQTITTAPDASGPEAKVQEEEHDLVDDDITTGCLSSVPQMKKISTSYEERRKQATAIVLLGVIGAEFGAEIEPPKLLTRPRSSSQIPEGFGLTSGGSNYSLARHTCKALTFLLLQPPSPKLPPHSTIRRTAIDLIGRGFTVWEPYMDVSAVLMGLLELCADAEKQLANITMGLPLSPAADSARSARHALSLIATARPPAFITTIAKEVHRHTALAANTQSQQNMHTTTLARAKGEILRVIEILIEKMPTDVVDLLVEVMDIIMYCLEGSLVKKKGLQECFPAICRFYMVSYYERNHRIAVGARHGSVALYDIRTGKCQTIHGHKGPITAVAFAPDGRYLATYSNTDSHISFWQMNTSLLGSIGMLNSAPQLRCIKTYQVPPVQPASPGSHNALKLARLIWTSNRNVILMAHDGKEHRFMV
UniProt Q62717: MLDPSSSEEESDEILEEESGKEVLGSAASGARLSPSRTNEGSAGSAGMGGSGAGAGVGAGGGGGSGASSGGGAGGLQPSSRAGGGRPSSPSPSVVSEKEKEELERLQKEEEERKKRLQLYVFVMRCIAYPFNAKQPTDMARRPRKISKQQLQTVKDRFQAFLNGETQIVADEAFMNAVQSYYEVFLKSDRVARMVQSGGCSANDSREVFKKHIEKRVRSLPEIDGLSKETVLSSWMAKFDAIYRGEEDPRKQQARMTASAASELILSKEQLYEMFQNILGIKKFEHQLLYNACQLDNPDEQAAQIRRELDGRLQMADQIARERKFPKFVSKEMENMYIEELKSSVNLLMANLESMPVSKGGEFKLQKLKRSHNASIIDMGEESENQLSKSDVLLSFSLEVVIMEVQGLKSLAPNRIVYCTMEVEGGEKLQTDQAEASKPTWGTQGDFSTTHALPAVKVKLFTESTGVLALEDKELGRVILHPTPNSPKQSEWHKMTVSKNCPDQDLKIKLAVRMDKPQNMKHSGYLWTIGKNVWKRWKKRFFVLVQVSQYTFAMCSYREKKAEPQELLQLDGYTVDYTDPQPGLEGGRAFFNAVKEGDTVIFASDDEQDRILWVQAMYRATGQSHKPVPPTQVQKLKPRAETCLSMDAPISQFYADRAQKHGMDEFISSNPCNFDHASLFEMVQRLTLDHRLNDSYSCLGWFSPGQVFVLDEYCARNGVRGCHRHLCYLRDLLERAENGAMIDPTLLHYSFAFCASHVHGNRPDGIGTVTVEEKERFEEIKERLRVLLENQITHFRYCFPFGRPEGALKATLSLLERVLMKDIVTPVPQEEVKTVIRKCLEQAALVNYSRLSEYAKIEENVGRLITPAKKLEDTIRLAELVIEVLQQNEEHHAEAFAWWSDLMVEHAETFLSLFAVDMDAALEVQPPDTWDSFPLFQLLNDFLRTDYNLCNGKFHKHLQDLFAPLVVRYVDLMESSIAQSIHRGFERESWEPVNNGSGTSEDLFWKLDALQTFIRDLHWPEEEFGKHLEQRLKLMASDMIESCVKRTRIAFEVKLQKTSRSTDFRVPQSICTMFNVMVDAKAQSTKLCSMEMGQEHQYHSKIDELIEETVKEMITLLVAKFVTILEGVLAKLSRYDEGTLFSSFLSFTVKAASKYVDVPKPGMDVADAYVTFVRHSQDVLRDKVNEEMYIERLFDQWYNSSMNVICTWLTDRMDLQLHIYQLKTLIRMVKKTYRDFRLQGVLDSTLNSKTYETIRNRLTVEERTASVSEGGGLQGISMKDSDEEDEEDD
CAPS(1–640)-HA: residues 1-640 of Q62717
CAPS(1–378)-HA: residues 1-378 of Q62717
CAPS(859–1289)-HA: residues 859-1289 of Q62717
UniProt P25286: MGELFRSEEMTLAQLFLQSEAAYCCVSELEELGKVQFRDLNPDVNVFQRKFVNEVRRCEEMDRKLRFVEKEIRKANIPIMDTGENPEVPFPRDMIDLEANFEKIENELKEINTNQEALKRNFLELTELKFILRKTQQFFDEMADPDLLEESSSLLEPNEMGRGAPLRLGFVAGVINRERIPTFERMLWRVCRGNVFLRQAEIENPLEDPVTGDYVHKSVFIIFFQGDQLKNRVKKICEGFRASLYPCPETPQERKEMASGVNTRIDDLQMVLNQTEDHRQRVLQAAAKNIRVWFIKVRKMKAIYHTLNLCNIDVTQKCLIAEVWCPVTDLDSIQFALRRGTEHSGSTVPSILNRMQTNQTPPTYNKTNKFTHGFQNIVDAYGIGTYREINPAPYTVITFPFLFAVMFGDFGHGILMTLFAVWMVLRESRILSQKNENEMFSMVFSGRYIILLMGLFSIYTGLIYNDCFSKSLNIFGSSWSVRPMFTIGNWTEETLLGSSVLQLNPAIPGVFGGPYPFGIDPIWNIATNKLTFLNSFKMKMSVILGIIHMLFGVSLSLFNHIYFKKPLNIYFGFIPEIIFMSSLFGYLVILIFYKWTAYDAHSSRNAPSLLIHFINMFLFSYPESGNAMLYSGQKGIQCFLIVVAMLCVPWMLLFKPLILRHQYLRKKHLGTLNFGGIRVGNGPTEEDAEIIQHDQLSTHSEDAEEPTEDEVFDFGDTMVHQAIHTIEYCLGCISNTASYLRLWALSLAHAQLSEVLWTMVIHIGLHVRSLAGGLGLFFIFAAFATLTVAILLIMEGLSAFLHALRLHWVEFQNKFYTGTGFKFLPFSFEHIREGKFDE
V-ATPase V1 domain subunit A (printed V1A1) (D4A133, form named): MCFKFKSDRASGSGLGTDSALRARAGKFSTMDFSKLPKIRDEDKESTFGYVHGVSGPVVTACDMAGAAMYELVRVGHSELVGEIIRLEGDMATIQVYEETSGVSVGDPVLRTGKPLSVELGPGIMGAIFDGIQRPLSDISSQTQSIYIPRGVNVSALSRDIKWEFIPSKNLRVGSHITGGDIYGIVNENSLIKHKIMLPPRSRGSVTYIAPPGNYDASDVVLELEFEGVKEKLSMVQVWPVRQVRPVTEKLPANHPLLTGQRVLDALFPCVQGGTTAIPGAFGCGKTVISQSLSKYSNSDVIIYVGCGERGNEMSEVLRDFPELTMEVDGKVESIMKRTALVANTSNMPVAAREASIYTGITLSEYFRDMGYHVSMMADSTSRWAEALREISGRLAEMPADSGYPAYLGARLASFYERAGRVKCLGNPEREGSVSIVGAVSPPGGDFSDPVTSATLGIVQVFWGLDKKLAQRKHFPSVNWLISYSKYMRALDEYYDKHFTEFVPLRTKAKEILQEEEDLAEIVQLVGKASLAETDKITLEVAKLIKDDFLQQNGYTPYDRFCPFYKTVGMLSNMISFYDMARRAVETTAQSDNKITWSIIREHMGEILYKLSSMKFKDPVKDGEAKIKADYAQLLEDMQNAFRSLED

No constants are given. Whether binding was seen depends on the method and setting. For part of these data: Binding seen in cells or lysates may run through a third protein. Some entries that bind do so weakly or less than the wild type.

Experiment [1] has as its target Rabconnectin3β (Rbcn3β) / WD repeat domain 7 (WDR7) (rat (endogenous in rat brain)) (UniProt Q9ERH3). Description: co-IP; immunoprecipitation with Rbcn3α or Rbcn3β antibody, control IgGs; Western blot; starting material not told for this experiment. (In general: In western blotting, separated proteins are transferred to a membrane and probed.)
The target of another experiment is Rbcn3β-GFP (UniProt Q9Y4E6). Nature of the experiment: pull-down; Rbcn3β-GFP (or GFP) immobilised on GFP nanobody beads (GFP-Trap MA); purified CAPS1-TwinStrep added in 25 mM Tris·HCl pH 7.4, 75 mM NaCl, 0.5% NP-40, 0.5 mM EDTA, 2.5% glycerol, 1 h; Western blot; both purified.
In experiment [2] the target is CAPS1 (calcium-dependent activator protein for secretion, CADPS) (rat (endogenous in rat brain)) (UniProt Q62717). Description: co-IP; CAPS1 antibody or control IgG immunoprecipitates of detergent-solubilized rat brain membranes; eluates analysed by Western blotting.
Experiment [3] has as its target CAPS(1–1289)-HA, full-length (UniProt Q62717). Nature of the experiment: co-IP; HA-tagged CAPS1 fragments coexpressed with Rbcn3β-GFP in HEK293FT cells; lysis in 25 mM Tris pH 7.4, 150 mM NaCl, 1% NP-40, 1 mM EDTA, 5% glycerol; anti-HA magnetic beads 1 h on ice; Western blot; control pCMV-HA.
The target of another experiment is CAPS(1–378)-HA (UniProt Q62717). The experiment is described as above.
In another experiment the target is CAPS(1–640)-HA (UniProt Q62717). The description is as above.
The target of another experiment is CAPS(859–1289)-HA (UniProt Q62717). The experiment is described as above.

For “CAPS1 (calcium-dependent activator protein for secretion, CADPS) (from UniProt Q62717 1-1289)”, the binding entry in experiment [1] is listed as “binds”.
As for “CAPS1-TwinStrep (from UniProt Q62717 1-1289)”, the binding entry in the experiment with Rbcn3β-GFP is “binds”.
Turning to “Rabconnectin3β (Rbcn3β) / WD repeat domain 7 (WDR7) (from UniProt Q9ERH3 1-1488)”, the binding entry in experiment [2] is “binds”.
With Rbcn3β-GFP (from UniProt Q9Y4E6 1-1490), the binding result in experiment [3] is recorded as “binds”; with CAPS(1–378)-HA, “binds”; with CAPS(1–640)-HA, “binds”; with CAPS(859–1289)-HA, “no binding”.
As to “V-ATPase V0 domain subunit a1 (V0a1) (from UniProt P25286 1-838)”, the binding entry in experiment [2] is recorded as “binds”.
Consider “V-ATPase V1 domain subunit A (printed V1A1) (from UniProt D4A133 1-647)”, for which the binding result in experiment [2] is “binds”.
